Drawing on article PMC10301922, “Anti-Oxidant, Anti-Mutagenic Activity and Safety Evaluation of Antrocin” (Toxics, 2023), this text covers mutagenic effect for 1 compound.

This series deals with five Salmonella typhimurium tester strains. In words: Ames test, overall result in five tester strains. Conditions: TA98, TA100, TA102, TA 1535, TA1537, with or without S9, up to 0.05 mg/plate. For orientation: The Ames test detects mutagens through reverse mutation in bacteria.

For `C=C1CC[C@H]2C(C)(C)CCC[C@@]23C(=O)OC[C@@H]13` [Antrocin, (-)-Antrocin], the mutagenic effect entry is reported as “no mutagenic effect”.
